Target: human EphA2 (Homo sapiens, UniProt P29317)
Assay: Competition Binding Assay (fluorescence polarisation, competition with fluorescent tracer BCY90)
Method: Peptides without a fluorescent tag were tested in competition with a peptide with a fluorescent tag and a known Kd.
Peptides were diluted to an appropriate concentration in assay buffer as described in the direct binding assay with a maximum of 5% DMSO, then serially diluted 1 in 2. […] Measurements were conducted, however the gain was determined prior to the first measurement. Data analysis was in Systat Sigmaplot version 12.0 where the mP values were fit to a user defined cubic equation to generate a Ki value: • f=ymax+(ymin−ymax)/Lig*((Lig*((2*((Klig+Kcomp+Lig+Comp−Prot*c)^2−3*(Kcomp*(Lig−Prot*c)+Klig*(Comp−Prot*c)+Klig*Kcomp))^0.5*COS(ARCCOS((−2*(Klig+Kcomp+Lig+Comp−Prot*c)^3+9*(Klig+Kcomp+Lig+Comp−Prot*c)*(Kcomp*(Lig−Prot*c)+Klig*(Comp−Prot*c)+Klig*Kcomp)−27*(−1*Klig*Kcomp*Prot*c))/(2*((((Klig+Kcomp+Lig+Comp−Prot*c)^2−3*(Kcomp*(Lig−Prot*c)+Klig*(Comp−Prot*c)+Klig*Kcomp))^3)^0.5)))/3))−(Klig+Kcomp+Lig+Comp−Prot*c)))/((3*Klig)+((2*((Klig+Kcomp+Lig+Comp−Prot*c)^2−3*(Kcomp*(Lig−Prot*c)+Klig*(Comp−Prot*c)+Klig*Kcomp))^0.5*COS(ARCCOS((−2*(Klig+Kcomp+Lig+Comp−Prot*c)^3+9*(Klig+Kcomp+Lig+Comp−Prot*c)*(Kcomp*(Lig−Prot*c)+Klig*(Comp−Prot*c)+Klig*Kcomp)−27*(−1*Klig*Kcomp*Prot*c))/(2*((((Klig+Kcomp+Lig+Comp−Prot*c)^2−3*(Kcomp*(Lig−Prot*c)+Klig*(Comp−Prot*c)+Klig*Kcomp))^3)^0.5)))/3))−(Klig+Kcomp+Lig+Comp−Prot*c)))). […]

Chain of human EphA2 (P29317 24-976): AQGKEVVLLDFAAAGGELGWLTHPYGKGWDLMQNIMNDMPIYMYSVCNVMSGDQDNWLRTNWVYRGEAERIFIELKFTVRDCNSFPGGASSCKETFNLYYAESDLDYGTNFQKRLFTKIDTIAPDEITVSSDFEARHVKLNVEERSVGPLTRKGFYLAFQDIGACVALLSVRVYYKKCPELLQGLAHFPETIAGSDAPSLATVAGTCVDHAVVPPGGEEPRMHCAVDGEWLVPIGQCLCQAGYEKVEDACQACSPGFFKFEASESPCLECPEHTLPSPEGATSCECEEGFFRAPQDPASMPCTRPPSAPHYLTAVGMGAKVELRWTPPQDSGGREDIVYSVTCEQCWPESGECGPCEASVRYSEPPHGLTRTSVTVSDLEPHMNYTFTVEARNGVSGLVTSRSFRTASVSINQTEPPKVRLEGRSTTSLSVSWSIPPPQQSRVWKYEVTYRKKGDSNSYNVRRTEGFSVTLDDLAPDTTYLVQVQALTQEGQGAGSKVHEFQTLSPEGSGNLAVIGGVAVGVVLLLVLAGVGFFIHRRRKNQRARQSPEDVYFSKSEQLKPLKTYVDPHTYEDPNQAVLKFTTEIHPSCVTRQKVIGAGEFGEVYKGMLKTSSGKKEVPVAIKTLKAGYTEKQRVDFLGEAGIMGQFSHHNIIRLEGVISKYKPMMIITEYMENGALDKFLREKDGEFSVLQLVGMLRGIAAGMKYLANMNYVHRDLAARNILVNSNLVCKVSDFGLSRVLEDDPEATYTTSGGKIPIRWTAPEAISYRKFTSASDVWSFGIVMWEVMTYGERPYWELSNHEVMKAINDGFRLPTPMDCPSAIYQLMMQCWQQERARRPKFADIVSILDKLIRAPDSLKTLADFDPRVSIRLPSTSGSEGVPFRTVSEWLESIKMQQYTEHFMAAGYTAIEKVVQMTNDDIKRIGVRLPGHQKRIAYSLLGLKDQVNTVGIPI

Substance: A-[HArg]-D-Ci[HyP]LVNPLCiiLHP[d1Nal]W[HArg]Ciii [BCY13116]
- Ki: 1130 pM

Substance: A-[HArg]-D-Ci[HyP]LVNPLCiiL[3,3-DPA]P[dD]W[HArg]Ciii [BCY12866]
- Ki: 244 pM

— US20260327262A1, “BICYCLIC PEPTIDE LIGANDS SPECIFIC FOR EPHA2” (BicycleTx Limited, priority 2019, published 2026)
